{"source": "PubChem BioAssay AID624417", "about": "(National Center for Advancing Translational Sciences (NCATS), 2012)", "note": "Out of some 410,000 compounds screened, about 6,400 (1.6%) were called active. Inconclusive results, whose numbers are uncertain, are shown with a selection of clear calls. The call rests on the fitted dose curve; in most records, active means well fitted inhibition curve with a large enough effect; inconclusive means small, poorly fitted or top-dose-only effect; inactive means no such curve, though single readings can be large or run the other way. Potencies of inconclusive entries are left out as doubtful fits. Potency means the concentration at half of the fitted maximal effect; tags describe the fitted curve by direction and shape."}
{"target": "Glucagon-like peptide 1 receptor (Homo sapiens) (UniProt P43220)", "sequence (P43220 whole entry, looked up)": "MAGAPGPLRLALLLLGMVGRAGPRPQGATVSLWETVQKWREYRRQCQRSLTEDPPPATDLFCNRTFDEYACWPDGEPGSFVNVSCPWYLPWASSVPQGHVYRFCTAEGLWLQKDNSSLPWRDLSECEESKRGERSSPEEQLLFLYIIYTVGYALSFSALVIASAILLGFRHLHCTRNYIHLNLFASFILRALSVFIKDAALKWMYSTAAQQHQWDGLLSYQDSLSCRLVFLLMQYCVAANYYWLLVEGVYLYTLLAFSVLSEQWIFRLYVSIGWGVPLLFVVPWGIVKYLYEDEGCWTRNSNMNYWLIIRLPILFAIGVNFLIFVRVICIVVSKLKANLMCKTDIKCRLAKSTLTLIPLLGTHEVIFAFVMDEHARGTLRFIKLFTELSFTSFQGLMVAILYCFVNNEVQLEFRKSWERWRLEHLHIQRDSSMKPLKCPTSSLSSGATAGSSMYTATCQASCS", "assay": "qHTS of GLP-1 Receptor Inverse Agonists (Inhibition Mode); further: nearly all actives have a fitted effect of over 55% in size", "conditions": "HEK293 GLP-1R CRE-luciferase, luminescence, 24 h, GLP-1R form is constitutively active; series mostly up to 38.3 µM", "method_in_brief": "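Constitutively active GLP-1R drives a cAMP-responsive luciferase in stably transfected HEK293 cells; test compounds are added after overnight (12 h) attachment and left 24 hr, and signal loss in luminescence marks inhibition.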"}
{"smiles": "CC(C)c1cc(C(=O)N/N=C/C=C/c2ccccc2)n[nH]1", "Potency": "inconclusive [inhibitor, single point]"}
{"smiles": "CCOc1ccc(S(=O)(=O)N(CC)CC)cc1NS(=O)(=O)c1ccc(F)c(F)c1F", "Potency": "inconclusive [inhibitor, partial curve, poor fit]"}
{"smiles": "COc1ccccc1NC1=Nc2cccc3cccc1c23", "Potency": "inconclusive [inhibitor, single point]"}
{"smiles": "CCCN(CCC)CCCNC(=S)Nc1ccc2nc(N3CCN(C)CC3)cc(C)c2c1", "Potency": "inconclusive [inhibitor, partial curve, poor fit]"}
{"smiles": "CN(C(=O)c1ccc2c(c1)N(Cc1cccc(Cl)c1)C(=O)c1ccccc1S2(=O)=O)C1CCCCC1", "Potency": "inconclusive [inhibitor, single point]"}
{"smiles": "CC(C)n1cnc2cc(NC(=O)c3ccco3)ccc21", "Potency": "inconclusive [inhibitor, single point]"}
{"smiles": "Cn1nc(-c2ccccc2)c(C(=O)Nc2ccc(Cl)cc2)c1Cl", "Potency": "inactive"}
{"smiles": "Cc1ccc(S(=O)(=O)N2C[C@H]3C(=O)C[C@@H](c4ccccc4)N(S(=O)(=O)c4cccc(C)c4)[C@H]3C[C@H]2c2ccccc2)cc1", "Potency": "inconclusive [inhibitor, partial curve, poor fit]"}
{"smiles": "COc1ccc(CCNC2=C(Cl)C(=O)N(CCc3ccccc3)C2=O)cc1OC", "Potency": "inconclusive [inhibitor, single point]"}
{"smiles": "O=C(OCc1c(-c2ccccc2)ncc2ccccc12)c1ccc(F)cc1", "Potency": "inconclusive [inhibitor, single point]"}
{"smiles": "COc1cc(/C=C/c2nc(C#N)c(N3CCN(C)CC3)o2)cc(OC)c1OC", "Potency": "inactive"}
{"smiles": "CC1CCCN(CCCNC(=O)c2ccc(CS(=O)(=O)c3c(Cl)cccc3Cl)o2)C1", "note": "(stereo not drawn)", "Potency": "inconclusive [inhibitor, single point]"}
{"smiles": "COc1ccc(C(O)c2nc(-c3cccc(C(C)C)c3)cs2)cc1", "note": "(stereo not drawn)", "Potency": "inconclusive [inhibitor, single point]"}
{"smiles": "CCOc1ccc(S(=O)(=O)Nc2cc(S(=O)(=O)N(CC)CC)ccc2N2CCCC2)cc1", "Potency": "inconclusive [inhibitor, single point]"}
{"smiles": "O=C(c1ccc(Br)o1)N1CCN(C/C=C/c2ccccc2)CC1", "Potency": "inconclusive [inhibitor, single point]"}
{"smiles": "C#CCOCCOCCOCCNc1nc(N2CCN(C(=O)CCCCCCCCCCNC(=O)[C@@H](CCSC)n3cc(CCO)nn3)CC2)nc(N2CCN(C(=O)CCCCCCCCCCNC(=O)[C@H]([C@@H](C)CC)n3cc(CCCCN=C(N)N)nn3)CC2)n1", "Potency": "inconclusive [inhibitor, single point]"}
{"smiles": "O=C(CN1CCOc2ccccc21)NC1CCCCCCC1", "Potency": "inconclusive [inhibitor, single point]"}
{"smiles": "Cc1ccc([C@H]2C[C@@H](n3cc(COC(=O)c4ccccc4)nn3)[C@H](O)CN2C(=O)c2cccs2)cc1", "Potency": "inconclusive [inhibitor, single point]"}
{"smiles": "O=C(O)c1ccc(Cl)c(S(=O)(=O)Nc2cccc(C(=O)Nc3cccc(C(F)(F)F)c3)c2)c1", "Potency": "inactive"}
{"smiles": "COc1ccc(C(=O)CSc2ccccc2C(=O)O)cc1", "Potency": "inconclusive [inhibitor, single point]"}
{"smiles": "CCCCCn1nc(C(=O)N2CCc3ccccc32)c2ccccc2c1=O", "Potency": "inconclusive [inhibitor, partial curve, poor fit]"}
{"smiles": "Cc1ccc(CN2CCC(CNC(=O)c3cnn(-c4ccccc4Cl)c3C3CCN(C(=O)OC(C)(C)C)CC3)CC2)cc1", "Potency": "inconclusive [inhibitor, single point]"}
{"smiles": "CCOc1ccccc1NC(=O)Nc1ccc2c(c1)OCO2", "Potency": "inconclusive [inhibitor, single point]"}
{"smiles": "C/C(CC1CC(COCC(C)C)OC1=O)=N\\NC(N)=S", "note": "(stereo not drawn)", "Potency": "inconclusive [inhibitor, single point]"}
{"smiles": "CC(=O)n1cc(CO)c2ccccc21", "Potency": "inactive"}
{"smiles": "CC(=O)NCC1CCCN(Cc2cn(-c3ccccc3F)nc2-c2cc(C)sc2C)C1", "note": "(stereo not drawn)", "Potency": "inconclusive [inhibitor, single point]"}
{"smiles": "Cc1cccnc1C(NC(=O)C1CCN(Cc2cn(C)c3ccccc23)CC1)c1ccc(Cl)cc1", "note": "(stereo not drawn)", "Potency": "inconclusive [inhibitor, partial curve, poor fit]"}
{"smiles": "CCOc1ccc(CN2CCC(n3nccc3NC(=O)CCCc3ccccc3)CC2)cc1", "Potency": "inconclusive [inhibitor, partial curve, poor fit]"}
{"smiles": "CC(C)c1nc(N2CCCC2)c(C#N)c2c1CCCC2", "Potency": "inconclusive [inhibitor, single point]"}
{"smiles": "COCCNC(=O)CN(Cc1ccc2c(c1)OCO2)C(=O)CCC(=O)Nc1nccs1", "Potency": "inactive"}
{"smiles": "COc1ccc(/C=N/Nc2cc(C)nc(-n3nc(C)cc3C)n2)cc1", "Potency": "inconclusive [inhibitor, full curve, poor fit]"}
{"smiles": "CN(C(=O)c1c(Cl)cnn1C)C12CC3CC(CC(C3)C1)C2", "Potency": "inconclusive [inhibitor, full curve, poor fit]"}
{"smiles": "CC1=NN(C(=O)c2ccccc2Cl)C(O)(c2ccccc2)C1", "note": "(stereo not drawn)", "Potency": "inconclusive [inhibitor, partial curve]"}
{"smiles": "CC1(C(=O)OCC(=O)Nc2cccc(S(=O)(=O)NC3=NCCCCC3)c2)CC1(Cl)Cl", "note": "(stereo not drawn)", "Potency": "inactive"}
{"smiles": "O=C(CN(C(=O)Cn1nnc(-c2ccc(F)cc2)n1)c1cccc(F)c1)NC1CCCC1", "Potency": "inconclusive [inhibitor, partial curve, poor fit]"}
{"smiles": "O=C(Cn1cnc2c(OCc3ccccc3)ncnc21)NCCc1c[nH]c2ccccc12", "Potency": "inconclusive [inhibitor, single point]"}
{"smiles": "S=C(c1ccc(Br)cc1)N1CCN(Cc2ccccc2)CC1", "Potency": "inactive"}
{"smiles": "Cc1ccc(C(C)C)c(OCC#CCN2CCOCC2)c1", "Potency": "inconclusive [inhibitor, partial curve, poor fit]"}
